Reference: the BET-seq Pho4 binding data (Le et al. 2018)
The list shows a part of the results. These are noisy estimates, calculated here from bound and input reads.

Each sequence was assayed against T1, Pho4 (S. cerevisiae) (UniProt P07270) (assay: relative binding free energy (BET-seq); higher = weaker binding). Conditions: reference: library average.
T1 sequence: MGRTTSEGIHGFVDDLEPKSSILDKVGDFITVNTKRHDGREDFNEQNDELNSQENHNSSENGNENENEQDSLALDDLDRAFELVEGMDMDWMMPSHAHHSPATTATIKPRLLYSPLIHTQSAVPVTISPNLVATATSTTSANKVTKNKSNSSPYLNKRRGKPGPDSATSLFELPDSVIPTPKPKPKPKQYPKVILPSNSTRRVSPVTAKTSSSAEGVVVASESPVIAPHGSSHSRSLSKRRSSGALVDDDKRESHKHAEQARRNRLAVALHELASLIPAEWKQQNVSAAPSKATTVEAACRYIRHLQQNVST

Row | Sequence | relative binding free energy
1 | AAAGGCACGTGTTGGG | -0.06 kcal/mol
2 | TTTTTCACGTGTGTTC | 0.41 kcal/mol
3 | GGCAGCACGTGGAGAG | 0.03 kcal/mol
4 | GTGGCCACGTGGATGA | -0.07 kcal/mol
5 | TGGCTCACGTGTCGGA | 0.27 kcal/mol
6 | TAGTACACGTGTTGGT | 0.05 kcal/mol
7 | CATTGCACGTGGGTGA | -0.2 kcal/mol
8 | GCATTCACGTGTGTGG | 0.25 kcal/mol
9 | TGGTGCACGTGATTAT | 0.12 kcal/mol
10 | CGATTCACGTGGGGAG | 0.04 kcal/mol
11 | GCTAACACGTGGGGTA | -0.16 kcal/mol
12 | AGAGGCACGTGCTTAG | -0.18 kcal/mol
13 | GACGTCACGTGGGTAT | 0.05 kcal/mol
14 | GGGTTCACGTGACTGT | 0.29 kcal/mol
15 | TTTGACACGTGAAGTC | 0.25 kcal/mol
16 | TCAGGCACGTGTGATG | 0.06 kcal/mol
17 | ATGGCCACGTGTGTGG | -0.01 kcal/mol
18 | CTTAGCACGTGGGGGC | -0.29 kcal/mol
19 | AAGGTCACGTGGTGGT | 0.07 kcal/mol
20 | ATGGGCACGTGTCGAG | -0.15 kcal/mol
21 | GGAGTCACGTGTTTGA | 0.2 kcal/mol
22 | TGTGCCACGTGAGCGT | -0.06 kcal/mol
23 | AGTCTCACGTGCGTGT | 0.04 kcal/mol

Row | Sequence | relative binding free energy
24 | CATTTCACGTGGGGTG | 0.14 kcal/mol
25 | TATATCACGTGCTGTG | 0.05 kcal/mol
26 | TCTTTCACGTGTGCTG | 0.24 kcal/mol
27 | CGAGGCACGTGAGGTA | 0.21 kcal/mol
28 | AATTGCACGTGTTGCG | -0.04 kcal/mol
29 | GATAGCACGTGTTGGT | -0.04 kcal/mol
30 | GGGGTCACGTGATTGC | 0.39 kcal/mol
31 | TATGTCACGTGTTCCT | 0.18 kcal/mol
32 | TTAATCACGTGTCTGT | 0.06 kcal/mol
33 | TGGGGCACGTGTCTAT | -0.09 kcal/mol
34 | ATGAGCACGTGTGTTA | -0.06 kcal/mol
35 | CAAATCACGTGTTGGT | 0.06 kcal/mol
36 | AGTAACACGTGGGGAA | -0.1 kcal/mol
37 | TCGATCACGTGGGGGG | -0.01 kcal/mol
38 | TCGAACACGTGTGTGG | 0.13 kcal/mol
39 | CTTGACACGTGATGTG | 0.14 kcal/mol
40 | GAGTTCACGTGTAGAT | 0.38 kcal/mol
41 | TGTCCCACGTGTGGGG | -0.1 kcal/mol
42 | TTTTACACGTGCGTGC | 0.13 kcal/mol
43 | AAAGGCACGTGTAGAT | 0.15 kcal/mol
44 | ATTGTCACGTGCGGGT | 0 kcal/mol
45 | AGGCGCACGTGGAGAT | -0.02 kcal/mol
46 | TCGGTCACGTGGGATT | -0.12 kcal/mol

Row | Sequence | relative binding free energy
47 | TTATGCACGTGGACTT | 0.08 kcal/mol
48 | AGGTGCACGTGGGGCG | -0.15 kcal/mol
49 | ATTAGCACGTGTAAAT | 0.02 kcal/mol
50 | TTGGGCACGTGTACGG | -0.11 kcal/mol
51 | CGTGGCACGTGGGGGG | -0.2 kcal/mol
52 | CAGGGCACGTGTACTG | 0.04 kcal/mol
53 | CGTTACACGTGTTGAT | 0.03 kcal/mol
54 | CTTTGCACGTGAGCTT | 0.16 kcal/mol
55 | TGAGACACGTGTGGAG | 0.17 kcal/mol
56 | AGTTACACGTGAGTGA | 0.31 kcal/mol
57 | GTTATCACGTGAGATG | 0.27 kcal/mol
58 | TCGACCACGTGTGGGT | -0.05 kcal/mol
59 | GCTATCACGTGTAGGG | 0.05 kcal/mol
60 | CTATTCACGTGGTTGG | 0.25 kcal/mol
61 | GTGTGCACGTGGGTAG | -0.18 kcal/mol
62 | GGGCTCACGTGGATTG | 0.19 kcal/mol
63 | GTTTTCACGTGCTCTG | 0.25 kcal/mol
64 | GTTTGCACGTGATGAG | 0.26 kcal/mol
65 | TTTTGCACGTGGCATT | -0.15 kcal/mol
66 | TTCTGCACGTGTCGGA | 0.07 kcal/mol
67 | TGAGTCACGTGTTCAT | 0.11 kcal/mol
68 | AAATGCACGTGACGGG | 0.03 kcal/mol
69 | TTTAGCACGTGATTCG | -0.04 kcal/mol

Row | Sequence | relative binding free energy
70 | CGTTGCACGTGGTTTG | -0.04 kcal/mol
71 | GGTAGCACGTGTTCAT | 0 kcal/mol
72 | TCTAGCACGTGGAAGT | 0.09 kcal/mol
73 | TTGATCACGTGTTGTT | 0.19 kcal/mol
74 | TTTTACACGTGGTCCG | 0.05 kcal/mol
75 | GTGTGCACGTGTTCTA | -0.07 kcal/mol
76 | GGAAGCACGTGTTTAG | -0.04 kcal/mol
77 | ATATCCACGTGGGGTA | -0.16 kcal/mol
78 | ATAATCACGTGTGGGT | 0.16 kcal/mol
79 | GGCTTCACGTGTAATT | 0.52 kcal/mol
80 | TATTGCACGTGGGGTA | -0.1 kcal/mol
81 | TTTGGCACGTGCGTTC | -0.14 kcal/mol
82 | GGATTCACGTGCAAGG | 0.33 kcal/mol
83 | AATTTCACGTGGTATG | 0.17 kcal/mol
84 | AGTGACACGTGATATT | 0.3 kcal/mol
85 | GGGCGCACGTGGACGG | -0.13 kcal/mol
86 | TGTTGCACGTGCTGAA | -0.08 kcal/mol
87 | AGGGACACGTGAGATA | 0.24 kcal/mol
88 | CGGGGCACGTGTCGGC | 0 kcal/mol
89 | ACATGCACGTGATGTT | 0.03 kcal/mol
90 | CTGGGCACGTGGCTGT | -0.18 kcal/mol
91 | AAGAACACGTGGGTAG | 0.09 kcal/mol
92 | ATGATCACGTGTGCTG | 0.13 kcal/mol

Row | Sequence | relative binding free energy
93 | CTGGGCACGTGAGAAG | 0.22 kcal/mol
94 | TCGCACACGTGGGTGT | -0.11 kcal/mol
95 | GGTGGCACGTGACAGG | 0.09 kcal/mol
96 | GTAAACACGTGTGGGG | 0.05 kcal/mol
97 | CGTATCACGTGGGGCT | -0.2 kcal/mol
98 | AGTATCACGTGGGCCT | 0.01 kcal/mol
99 | GGGTTCACGTGCTCGT | 0.27 kcal/mol
100 | AGGTGCACGTGTCCGG | 0.1 kcal/mol
101 | AGAGTCACGTGTAGGG | 0.19 kcal/mol
102 | GTTGTCACGTGATATG | 0.26 kcal/mol
103 | TTTTGCACGTGTACGC | 0.05 kcal/mol
104 | TGAGGCACGTGAATTT | 0.24 kcal/mol
105 | GGGAACACGTGTGGGT | 0.16 kcal/mol
106 | ATGTTCACGTGGCGGG | 0.13 kcal/mol
107 | TATGTCACGTGGGTGT | -0.04 kcal/mol
108 | GTGAGCACGTGTTAGA | -0.06 kcal/mol
109 | TCAGGCACGTGGTCGG | -0.25 kcal/mol
110 | GTTTACACGTGGGCCT | 0.09 kcal/mol
111 | TTCGGCACGTGGTAGC | -0.07 kcal/mol
112 | ATATACACGTGGCATG | -0.05 kcal/mol
113 | GAGGACACGTGGGTTG | 0.01 kcal/mol
114 | TAGTACACGTGGGTCT | -0.04 kcal/mol
115 | GAATTCACGTGGATTT | 0.4 kcal/mol
